In PubChem BioAssay AID485344 (National Center for Advancing Translational Sciences (NCATS), 2010):
The whole screen tested about 340,000 compounds, of which about 6,900 (2%) were called active. Cut-off read from the data, not from the text of the source: active = inhibition above about 30%; inactive = below that, where a call was filed. This is a selection; strong and weak results do not stand in their true shares. Where no call is shown, the source filed none.
Note: 0% is about no effect.

What follows are compounds tested against D(2) dopamine receptor (Homo sapiens) (UniProt P14416) (assay: HTS Assay for Allosteric Antagonists of the Human D2 Dopamine Receptor: Primary Screen for Antagonists). Details: HEK293 TREx D2 cells, calcium flux, dopamine EC80; at 10 µM; stronger effect = higher value.
UniProt P14416, sequence (P14416 whole entry, looked up): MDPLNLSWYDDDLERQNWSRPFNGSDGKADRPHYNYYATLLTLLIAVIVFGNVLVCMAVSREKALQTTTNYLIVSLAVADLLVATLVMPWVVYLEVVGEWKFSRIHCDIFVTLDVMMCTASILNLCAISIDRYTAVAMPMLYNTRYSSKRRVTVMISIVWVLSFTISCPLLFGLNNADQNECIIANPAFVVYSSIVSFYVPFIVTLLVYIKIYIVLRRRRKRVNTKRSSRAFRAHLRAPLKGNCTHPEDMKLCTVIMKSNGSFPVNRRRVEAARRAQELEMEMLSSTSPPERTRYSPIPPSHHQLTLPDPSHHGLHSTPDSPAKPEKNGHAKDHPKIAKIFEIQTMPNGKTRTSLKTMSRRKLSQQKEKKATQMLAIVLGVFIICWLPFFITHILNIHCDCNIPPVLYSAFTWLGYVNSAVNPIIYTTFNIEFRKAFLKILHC
Summary of the method: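 Measurement of antagonist activity uses fluorescent calcium dye in inducible HEK293 T-REx D2 cells: 10 s baseline, compound addition with 180 s read, EC80 dopamine addition with a further 180 s read.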
Compound `COc1ccc(NC(=O)c2c(NC(=O)c3ccc(Br)cc3)sc3c2CCCC3)cc1` has an inhibition of -18.8%. `Cc1ccc2c(c1)N(CCC(=O)NCc1ccccc1Cl)C(=O)CO2` showed an inhibition of -11.9%. `Cc1ccc2onc(CC(=O)Nc3ccc(C(C)C)cc3)c2c1` was tested, and the inhibition was 11.8%. Compound `O=c1c2oc3ccccc3c2n(Cc2ccccc2F)c(=O)n1Cc1ccccc1` has an inhibition of 4.17%. `CCOC(=O)C1CCN(CC(O)COc2ccc(C(C)=O)cc2)CC1` (stereo not given) was tested, and the inhibition was active: 30.8%. `COc1cccc(CNC(=O)c2cc3c(=O)oc4ccc(C)cc4c3s2)c1` gave an inhibition of 7.74%. `CC(=O)C1=C(c2ccc(Cl)cc2)N(C(C)=O)n2c(nnc2C2CCCCC2)S1` gave an inhibition of 13.5%. `Cc1ccc(Cl)cc1N(C)C(=O)c1cn(C2CCCCC2)c(=O)c2c1c1ccccc1n2C` showed an inhibition of -7.21%. In the case of `O=C1CSC(c2cccnc2)N1CCc1ccccn1` (stereo not given), the inhibition is reported as active: 54.6%. `Cc1ccc(N(CC(=O)Nc2cccc(Cl)c2)S(=O)(=O)c2cccs2)cc1` showed an inhibition of -14.8%. `CCN(Cc1ccccc1)S(=O)(=O)c1ccc2c(c1)CC(C)N2C(=O)C1CCC1` (stereo not given) was tested, and the inhibition was 15.4%. With `COc1ccc(NC(=O)c2ccc(CN3CCN(c4ccccc4)CC3)cc2)cc1OC` the inhibition was active: 70.8%. Work on `CCC(C)NC(=O)c1cccc(NC(=O)c2nsc3ccccc23)c1` (stereo not given) yielded an inhibition of -6.95%. For `CC1(OC(=O)C2CCCC2)C(=O)C=C2C=C(c3ccsc3)N(C3CCCC3)C=C2C1=O` (stereo not given), the inhibition was active: 37.4%. `COc1ccccc1NC(=O)CSC1=Nc2ccccc2C2=NC(CCC(=O)NCc3cccs3)C(=O)N12` (stereo not given) showed an inhibition of 8.94%. Compound `CCCCN(CC)C(=O)Cn1ncc2c3ccccc3n(CCC)c2c1=O` has an inhibition of 0.962%. For `CC(=O)c1c(C)[nH]c(C(=O)OCC(=O)Nc2nnc(-c3ccccc3)o2)c1C`, the inhibition was active: 34.9%. In the case of `COc1ccc(-n2cc(C(=O)NCc3ccccc3Cl)c3ccccc3c2=O)cc1`, the inhibition is reported as -10.9%. In the case of `Cn1c(=O)[nH]c2cc(-c3noc(-c4cccc(Cl)c4)n3)ccc21`, the inhibition is reported as 7.61%. `CCCNC(=O)Cn1nc(-c2ccc(F)cc2)c2cnc3ccc(F)cc3c21` showed an inhibition of 2.67%. In the case of `CCC(C)[C@H](NC(=O)NC1CCN(Cc2ccccc2)CC1)C(=O)OC` (stereo not given in full), the inhibition is reported as active: 56.6%. `CCOc1ccc(Cn2c(CNS(=O)(=O)c3cccc(Cl)c3)nc3cccnc32)cc1` showed an inhibition of 5.9%. Work on `CCc1ccc(NC(=O)CSc2nc3c(sc4ccccc43)c(=O)n2CCCOC(C)C)cc1` yielded an inhibition of -5.68%. Work on `COc1ccccc1C(=O)N1CCN(Cc2cc(=O)oc3cc(C)ccc23)CC1` yielded an inhibition of -16.6%. For `CCOC(=O)c1cc2sccc2n1Cc1ccc(C#N)cc1`, the inhibition was active: 31.1%. Compound `Cc1ccc(CNC(=O)c2ccc(CSCc3ccccc3C)o2)cc1` has an inhibition of 6.06%. Compound `COc1ccc(-c2nc3ccc(NS(=O)(=O)c4ccc(Cl)cc4)cc3o2)cc1` has an inhibition of -4.25%. In the case of `COc1ccc(-c2nc3scc(CCNS(=O)(=O)c4ccc(NC(C)=O)cc4)n3n2)cc1`, the inhibition is reported as 10.7%. `COc1cc2nc(SCC(=O)Nc3ccccc3F)n3nc(-c4ccccc4)nc3c2cc1OC` was tested, and the inhibition was 5.73%. With `COc1ccc(C)cc1N(C)C(=O)c1c2c(nc3ccccc13)C(=O)N(C1CCCCC1)C2` the inhibition was -3.47%. Compound `Cc1cccc(OCCn2c(SCC(=O)O)nc3ccccc32)c1` has an inhibition of -2.82%. `COc1ccc(CNS(=O)(=O)c2ccc(-c3cnc(C4CC4)o3)cc2)cc1` showed an inhibition of -5.55%. With `COc1ccc(Nc2ncc(C(=O)N3CCN(c4ccc(F)cc4)CC3)c3ccccc23)cc1` the inhibition was 6.17%. With `c1ccc(CN2CCN(c3ncccn3)CC2)cc1` the inhibition was active: 83.6%. `C=C(C)Cn1c(=O)c2c(nc3n2CCN3c2ccc(F)cc2)n(C)c1=O` was tested, and the inhibition was 3.46%. With `CCOc1ccc(NCc2cccn2-c2nnc(N3CCC(C(=O)NCCOC)CC3)s2)cc1` the inhibition was -4.45%. `Cc1cc(=O)n2nc(N3CCC(C(=O)NCc4ccc(F)cc4)CC3)sc2n1` was tested, and the inhibition was -5.09%. `COc1ccccc1/C=C/c1nc(C#N)c(NCCc2ccccc2)o1` gave an inhibition of -19.5%. `CCOc1ccc(-c2nc(Cn3ccn4nc(-c5ccc(OCC)c(Cl)c5)cc4c3=O)c(C)o2)cc1` showed an inhibition of -1.47%. In the case of `Cc1ccccc1Nc1cc(C(=O)NCc2cccs2)c2ccccc2n1`, the inhibition is reported as -9.68%. Work on `CCCS(=O)(=O)N1CCCC(C(=O)NCCOC)C1` (stereo not given) yielded an inhibition of -8.22%. In the case of `CCCCN(CCCC)C1=C(C(=O)c2ccccc2)N(C)S(=O)(=O)c2ccccc21`, the inhibition is reported as 17.7%. `Cc1ccc2c(=O)cc(C(=O)Nc3sc4c(c3C(=O)NCc3ccccc3)CCCC4)oc2c1C` showed an inhibition of -6.49%. Compound `O=C(CN1C(=O)CCc2cc(S(=O)(=O)N3CCOCC3)ccc21)Nc1cccc(C(F)(F)F)c1` has an inhibition of 8.49%. Work on `COc1ccc(NC(=O)CNC(=O)Cn2c(C)cc3ccccc3c2=O)cc1OC` yielded an inhibition of -2.4%. With `O=C(Nc1sc2c(c1C(=O)N1CCCCC1)CCCC2)c1ccccc1Cl` the inhibition was 9.03%. Work on `Cc1noc(Cn2c(=O)c3cc4c(cc3n(CC(=O)Nc3ccccc3Br)c2=O)OCO4)n1` yielded an inhibition of 10.8%. Work on `CCCCN1C(C(=O)c2ccccc2)=C(OC(C)=O)c2ccccc2S1(=O)=O` yielded an inhibition of 2.12%. In the case of `CN(C)c1ccc(CNC(=O)CCS(=O)(=O)c2ccc3c(c2)oc(=O)n3C)cc1`, the inhibition is reported as 1.99%. With `COc1ccccc1OCC(=O)NCc1nc(-c2ccc(Cl)cc2)no1` the inhibition was 1.65%. `CCOc1ccc(C(=O)Nc2ccc(S(=O)(=O)Nc3nc(C)cc(C)n3)cc2)cc1OC` gave an inhibition of -2.02%. In the case of `CC1=C(c2ccc(C)c(C)c2)S(=O)(=O)N(Cc2ccc(C(=O)NC(C)c3ccccc3)cc2)C1=O` (stereo not given), the inhibition is reported as 4.59%. `O=C(COc1ccccc1)Nc1ccccc1OCc1cc(=O)n2ccccc2n1` gave an inhibition of 18.5%. In the case of `O=C(Nc1c(C(=O)O)oc2ccccc12)c1ccc(C(F)(F)F)cc1`, the inhibition is reported as -17.9%. Work on `O=C(CSc1cn(CC(=O)N2CCOCC2)c2ccccc12)Nc1ccccc1` yielded an inhibition of -10.1%. With `CCOc1ccc(CN2CCC(n3nccc3NC(=O)c3ccccc3OC)CC2)cc1` the inhibition was active: 38.2%. With `O=C(COCc1cc(-c2ccc3c(c2)OCO3)on1)NCc1ccccc1Cl` the inhibition was -9.68%. For `O=C(Nc1ccc(F)cc1F)c1ccc2c(O)c(S(=O)(=O)c3ccc(Cl)cc3)c(=O)[nH]c2c1`, the inhibition was 11.8%. For `COc1cc(NC(=O)CSc2nc3nc(C)c(Cc4ccc(C)cc4)c(C)n3n2)cc(OC)c1OC`, the inhibition was -13.3%. Compound `CCc1ccc(C2c3c(oc4ccc(F)cc4c3=O)C(=O)N2c2nc(C)c(C(=O)OC)s2)cc1` (stereo not given) has an inhibition of 1.06%. For `Cn1c(=O)c2c(nc(Oc3ccccc3)n2Cc2c(Cl)cccc2Cl)n(C)c1=O`, the inhibition was 5.81%. Work on `COc1ccc(N(CC(=O)Nc2cc(C)ccc2C)S(=O)(=O)c2ccc(OC)c(OC)c2)cc1` yielded an inhibition of -1.01%. In the case of `O=C(COc1ccccc1[N+](=O)[O-])Nc1cccc(-c2nc3ccccc3s2)c1`, the inhibition is reported as 3.29%. For `COCCCNC(=O)CSc1nc2cc3c(cc2c(=O)n1CCCC(=O)NCc1ccc(OC)cc1)OCO3`, the inhibition was 9.34%. Compound `Cc1c(Cl)cccc1NC(=O)Nc1nnc(N(C)Cc2ccccc2)s1` has an inhibition of -2.85%. Compound `CC1=C(C(=O)NCc2ccccc2C)C2(CCCCC2)OC1=O` has an inhibition of -16.7%. Work on `Cc1c(NC(=O)C(C)(C)Oc2ccc(Cl)cc2)cccc1-c1nc2ncccc2o1` yielded an inhibition of 13.3%. `CC(=O)c1ccc(NC(=O)Cn2cc(S(=O)(=O)Cc3ccccc3Cl)c3ccccc32)cc1` was tested, and the inhibition was 0.728%. `COc1ccc(Br)cc1C(=O)Nc1ccc(-c2nc3cc(Cl)ccc3o2)cc1` showed an inhibition of 6.22%. In the case of `Cc1c(NC(=O)c2cccc3c(Cl)cccc23)cccc1-c1nc2ccccc2o1`, the inhibition is reported as 5.73%. `O=C(CCS(=O)(=O)c1cc(Br)cc2c1N(C(=O)C1CC1)CC2)NCc1ccccc1Cl` was tested, and the inhibition was 11.5%. In the case of `COC(=O)c1sccc1S(=O)(=O)N(CC(=O)Nc1c(C)cccc1C)c1ccc(C)c(C)c1`, the inhibition is reported as -0.401%. `COc1ccc2c(c1)c(=O)c(S(=O)(=O)c1ccc(C)cc1)cn2Cc1ccccc1C` gave an inhibition of -8.57%. Work on `COC(=O)C(C)n1nnc2sc(-c3ccccc3)cc2c1=O` (stereo not given) yielded an inhibition of 7.26%. `CC1CCN(CCCCOc2ccccc2[N+](=O)[O-])CC1` was tested, and the inhibition was active: 79.8%. `CCOC(=O)N1CCc2c(sc3c2c(=O)n(Cc2ccccc2)c(=O)n3CC(=O)Nc2ccc(C)c(C)c2)C1` showed an inhibition of 9.15%. In the case of `CCC(C(=O)Nc1cc(F)ccc1F)n1nc(-c2cc(C)ccc2C)ccc1=O` (stereo not given), the inhibition is reported as -14%. In the case of `COc1ccc(NC(=O)c2c(NCc3sccc3C)sc3c2CCCCC3)c(OC)c1`, the inhibition is reported as -26.6%. Compound `COC(=O)c1ccc(NC(=O)CSc2ncc3c(n2)-c2cc(Cl)ccc2N(Cc2ccccc2)S3(=O)=O)cc1` has an inhibition of 15.5%. For `CCOc1ccc(CCNC(=O)c2ccc(CS(=O)Cc3cccc(Cl)c3)o2)cc1` (stereo not given), the inhibition was -6.91%. Work on `COc1ccc(C)cc1NC(=O)Cn1c(=O)ccc2cc(S(=O)(=O)N3CCC(C)CC3)ccc21` yielded an inhibition of -15%. For `Cc1ccc2c(=O)c(C(=O)c3ccc(Cl)cc3)cn(CC(=O)NC3CCCCC3)c2n1`, the inhibition was 7.38%. `CCC(C(=O)Nc1ccccc1OC)n1nc(C)c2sc3ccccc3c2c1=O` (stereo not given) was tested, and the inhibition was -1.55%. `COc1ccc(OC)c(S(=O)(=O)N2c3ccccc3CC2C)c1` (stereo not given) was tested, and the inhibition was active: 33%. For `Clc1ccccc1OCCCCN1CCCCC1`, the inhibition was active: 76.6%. Compound `CCN(CCCNC(=O)CSc1cc(=O)n(CC)c2ccccc12)c1cccc(C)c1` has an inhibition of -24.2%. `Cc1ccc(NC(=O)c2c(C)oc3nc(C)nc(N4CCCC4)c23)c(C)c1` was tested, and the inhibition was -14.8%. Work on `CC(Sc1cn(CCNC(=O)c2ccccc2F)c2ccccc12)c1ccccc1` (stereo not given) yielded an inhibition of -0.0274%. `O=C(NCCN1CCN(c2ccccc2)CC1)C1CCN(S(=O)(=O)c2cccc3nsnc23)CC1` was tested, and the inhibition was active: 55.5%. For `COc1ccc(NC(=O)CC2C(=O)N(c3ccc(F)cc3)C(=S)N2NC(=O)c2ccc(Cl)cc2)cc1` (stereo not given), the inhibition was active: 37.4%. `Cc1ccc(S(=O)(=O)Nc2ccc3c(c2)nc(CN2CCCC2)n3C)cc1` was tested, and the inhibition was active: 71.6%. For `COc1cc(C(=O)N2CCc3c([nH]c4ccccc34)C2c2ccc(C)cc2)cc(OC)c1OC` (stereo not given), the inhibition was -11.8%. Compound `Nc1c(-c2nc(-c3ccc4c(c3)OCO4)cs2)c2ccccn2c1C(=O)c1ccccc1` has an inhibition of 2.48%. Work on `CCCCn1c(NCc2cc(Cl)ccc2O)nc2ccccc21` yielded an inhibition of -14.7%. For `CCOc1cc(C(=O)Nc2ccc([N+](=O)[O-])cn2)cc(OCC)c1OCC`, the inhibition was active: 69%.
